Earlier results on one compound are cited in article PMC10936414 (mBio, 2024).

This series relates to SARS-CoV-2. As to conditions: cited from earlier work.

In the case of `CC(=O)Oc1ccccc1C(=O)Nc1ncc([N+](=O)[O-])s1` [Nitazoxanide, nitazoxanide], the “inhibition of SARS-CoV-2 infection (in words)” value is recorded as “inhibit SARS-CoV-2 infection”.
